# Measured values as given in publication PMC6451091.
# This is one part of the list. Measured with an extract: partners may take part in the binding.
# Target: T1, FLI1 (endogenous, THP-1 nuclear extract) (UniProt Q01543)
# T1 sequence: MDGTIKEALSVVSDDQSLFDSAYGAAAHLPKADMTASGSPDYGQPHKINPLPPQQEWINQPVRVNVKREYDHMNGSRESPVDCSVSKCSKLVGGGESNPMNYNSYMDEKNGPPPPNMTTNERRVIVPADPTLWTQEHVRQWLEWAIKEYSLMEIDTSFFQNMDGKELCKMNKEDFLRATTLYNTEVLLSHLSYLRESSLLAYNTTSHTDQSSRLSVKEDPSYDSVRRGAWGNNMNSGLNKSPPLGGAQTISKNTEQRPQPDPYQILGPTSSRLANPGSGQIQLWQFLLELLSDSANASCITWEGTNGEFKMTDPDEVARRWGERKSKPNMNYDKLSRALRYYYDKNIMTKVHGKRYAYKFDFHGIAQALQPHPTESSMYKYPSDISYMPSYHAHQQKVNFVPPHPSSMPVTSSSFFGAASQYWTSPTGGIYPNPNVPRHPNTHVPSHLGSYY
# Assay: nuclear extract protein-binding microarray (nextPBM)
# Conditions: 20 mM HEPES pH 7.9, 100 mM NaCl, 1 mM DTT, 0.2 mg/mL BSA, 0.02% Triton X-100, 2% milk, 0.4 mg/mL salmon testes DNA; 1 h; temperature not stated; high values mean tight binding; double strand, one strand shown; sequences stand for … in GCCTAGCAC…GTGCTAGGTCTTGATTCGCTTGACGCTGCTG
row,Sequence,binding signal [z-score]
1,CAAGAGAGGAAGTGGTCAAC,3.26
2,CAATAAAGGAAGTGGAGACA,2.67
3,AAAAAAAGGCACTGGCTAGA,-0.787
4,TCCTGGAGGAAGTGATGCTG,2.33
5,AGAAAGGGGAAGTGACTTGC,4.03
6,CAAAAAGGGAAGAGGATGCT,1.56
7,AAACTGAGGAAGTGATGACT,1.8
8,GAAAACAGGAAGTGACTGTT,5.83
9,AAAAAGAGGAAGTGATGACC,4.74
10,AAGAAGAGGAAGTGGAGAGG,3.21
11,CTAATAGGGAAGTGGCCAAG,1.63
12,GAAGAAGGGAAGTACTGTGG,1.83
13,CAAAAAGGGTAGTGGATGCT,0.201
14,TACAAGAGGAAGTGAATTTT,3.35
15,CATTTGTAGAAGTACTGTGC,-0.336
16,GCTGGGAGGAAGTGAGACCT,2.56
17,AAAGTAAGGAAGTGCTTAAA,1.8
18,GAAATGAGGAAGTGATTAGG,3.48
19,GGTGGGAGGAAGTGTTTTCT,2.57
20,AGGTTGAGGAAGTGAATTCT,2.46

row,Sequence,binding signal [z-score]
1,TAGATGAGGAAGTAGCTCAA,2.41
2,AGAAAGGGGAAGTGATTTGT,3.67
3,GGGAGGAGGAAGTGGGTCGG,2.72
4,AGGAAGAGGAAGTCCCTCAA,3.46
5,GGAAAGAGGAACTGATATAT,2.79
6,CAAAAGAGGAAGCCGAGGTG,2.46
7,AAAAAGAGGAAATGGAGAAT,2.94
8,TTTTTGAGGAACTGCCAAGC,1.02
9,TCTTAGAGGAACTGAAATGG,0.558
10,GGAATCAGGAAGTGAAAAGA,3.25
11,CCCATAGGGAAGTGCACTGA,1.18
12,GACATGAGGAAGTCAGTAAA,2.04
13,CCGATGGGGAAGTGGTGCTG,1.78
14,ACAAAAAGGAAGTGTGCCCC,2.47
15,GAAATGAGGAAGTCAAATTA,3.02
16,CGAAAGGGGAAGTGCTAAAG,3.3
17,TAAAACAGGAAGTGTACTCT,5.55
18,AATTAAAGGAAGTGATTCTA,2.54
19,GGAAAGAGGAACTAGCCTTG,2.84
20,ACAAACAGGAAGTGTCCTGT,5.3
